Data as given in PubChem BioAssay AID1458 (National Center for Advancing Translational Sciences (NCATS), 2008).
The whole screen tested about 210,000 compounds, of which about 5,900 (2.8%) were called active. This list was built around the results that the source calls inconclusive (neither active nor inactive); the mix of calls is not that of the screen. Calls come from the whole dose curve; as a rule, active = well fitted activation curve with a large enough effect; inconclusive = small, poorly fitted or top-dose-only effect; inactive = no such curve, though single readings can be large or run the other way. Where the call is inconclusive, the potency comes from a doubtful curve fit.

Assay: qHTS Assay for Enhancers of SMN2 Splice Variant Expression; note: nearly all actives have a fitted effect of over 55% in size; for activity change, positive = activation: % of control where 0% means no effect
Details: HEK293 SMN2-luciferase splicing reporter, luminescence, 30-36 h; activity change, positive = activation: at 46.1 µM (top of the series)
How it was run: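 HEK293 cells carry an SMN2 minigene-luciferase reporter in which exon 7 inclusion puts luciferase in frame. Cells were seeded at 2000 cells/well, attached for 10-12 hours, then exposed to compounds for 30-36 hours at 37C before ONE-Glo luminescence.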
Potency is the fitted concentration of half-maximal effect; tags give direction and shape of the fitted curve.

SMILES | activity change, positive = activation | Potency
O=C(CN1C(=O)c2ccccc2C1=O)N1CCN(C2c3ccccc3-c3ccccc32)CC1 | inactive: 1.02% [at 1.84 µM] | 
CCOC(=O)c1ccc(-c2ccc(/C=N/NC(=O)CN(c3cccc(C)c3)S(C)(=O)=O)o2)cc1 |  | inconclusive: 5.01 µM [activator, partial curve, poor fit]
COc1cc2c(cc1OC)CN(c1nc(CN3CCOCC3)nc3sc4c(c13)CCC(C)C4)CC2 (centres undefined) |  | inactive
O=C(Nc1cccc(Cl)c1N1CCCCC1)c1ccc2c(c1)OCCO2 |  | inactive
Cc1nc2ccc(N)cc2c(=O)n1Cc1ccc(Cl)cc1 |  | inconclusive: 11.2 µM [activator, partial curve, poor fit]
COC(=O)c1cc(OC)c(OC)cc1NC(=O)C1CCC(=O)N1S(=O)(=O)c1ccc(C)cc1 (centres undefined) |  | inconclusive: 3.98 µM [activator, partial curve, poor fit]
CN1C(=O)CSc2ccc(NC(=O)NCc3ccco3)cc21 |  | inconclusive: 17.8 µM [activator, single point]
Cc1ccc(S(=O)(=O)N2CCN(CC(=O)Nc3ccc(N4CCOCC4)cc3)CC2)cc1C |  | inactive
O=C(Cn1cnc2ccccc2c1=O)c1ccccc1 |  | inconclusive: 22.4 µM [activator, single point]
CCOC(=O)c1ccc(N2C(=O)C(O)=C(C(C)=O)C2c2ccccn2)cc1 (centres undefined) |  | inconclusive: 20 µM [activator, partial curve, poor fit]
COc1cc(S(=O)(=O)N2CCN(c3ccccc3)CC2)ccc1F |  | inactive
Cc1ccc2nc(NC(=O)CN3CCOCC3)sc2c1 |  | inconclusive: 11.2 µM [activator, single point]
Cc1ccc(/C(C#N)=C\c2cn(C)c3ccccc23)cc1 |  | inconclusive: 35.5 µM [activator, single point]
O=C(Nc1ccccn1)c1cc2cc([N+](=O)[O-])ccc2s1 |  | inconclusive: 20 µM [activator, single point]
CCOc1ccc(NC(=O)CCSc2nc(-c3ccc4c(c3)OCO4)cc(C(F)(F)F)n2)cc1 |  | inactive
COc1ccc(OCc2cccc(C(=O)N3CCCC3)c2)cc1 |  | active: 2.51 µM
COc1cccc(C(=O)NCCSc2ccc(F)cc2)c1 |  | active: 12.6 µM
CCN(CC)c1ccc(C(=O)OCC(=O)Nc2sccc2C#N)cc1 |  | active: 10 µM
Cc1cccc(C)c1OCc1cc(=O)n2c3c(sc2n1)CCCC3 |  | inactive
O=C(Nc1nc(-c2ccccc2)ns1)c1cccs1 |  | active: 12.6 µM
COc1cc(S(=O)(=O)NCc2ccccc2)ccc1F |  | inconclusive: 0.631 µM [activator, partial curve, poor fit]
O=C(c1ccc(Cl)c([N+](=O)[O-])c1)N(Cc1ccccc1)C1CCS(=O)(=O)C1 (centres undefined) |  | inconclusive: 35.5 µM [activator, single point]
CCc1ccccc1NC(=O)c1nnn(Cc2ccc(Cl)cc2)c1N |  | inactive
Cc1ccc(NC(=O)CSc2n[nH]c(=O)n2C2CC2)cc1S(=O)(=O)N1CCOCC1 |  | inconclusive: 0.004 µM [activator, full curve, poor fit]
Nc1cc(N2CCCCC2)nc(N)[n+]1OS(=O)(=O)[O-] |  | inactive

SMILES | activity change, positive = activation | Potency
COC(=O)c1ccc(C=O)cc1 |  | inactive
Cc1ccc(NC(=O)c2cc3nc(-c4ccccc4)cc(-c4ccccc4)n3n2)cc1 |  | inactive
CSc1ccccc1NS(=O)(=O)c1ccccc1 |  | inconclusive: 10 µM [activator, partial curve]
Fc1ccc(Nc2nc(-c3ccncc3)cs2)cc1 |  | inconclusive: 8.91 µM [activator, partial curve, poor fit]
CCCOc1ccc(C(=O)NCC2OCCc3ccccc32)cc1 (centres undefined) |  | inactive
Nc1ccccc1-c1nnc(-c2ccc(-c3ccccc3)cc2)o1 |  | inconclusive: 20 µM [activator, single point]
c1ccc(-c2n[nH]c(-c3ccccn3)n2)cc1 |  | active: 11.2 µM
O=C(NNc1ccccn1)c1ccc(Cl)nc1 |  | inconclusive: 3.16 µM [activator, partial curve, poor fit]
Cc1cc(N/C=C/C(=O)c2cccs2)ccc1F |  | active: 14.1 µM
NC(=O)Nc1ccc(Oc2ncc(C(F)(F)F)cc2Cl)cc1 |  | inconclusive: 3.55 µM [activator, partial curve]
C/C(=N/NC(=O)c1cccs1)c1ccc(N2CCOCC2)cc1 |  | inconclusive: 35.5 µM [activator, single point]
O=C1C=C(O)CC(c2ccc(Cl)cc2)C1 (centres undefined) |  | inconclusive: 5.62 µM [activator, partial curve, poor fit]
COc1ccc(CN(C(=O)c2cc3ccccc3oc2=O)C2CCS(=O)(=O)C2)cc1OC (centres undefined) |  | inconclusive: 11.2 µM [activator, single point]
Cc1ccc(NC(=O)c2cccs2)cc1 |  | inconclusive: 35.5 µM [activator, single point]
Cc1cccc(Cn2c(SCc3ccc(C(=O)NCc4ccccc4F)cc3)nc3ccncc32)c1 |  | inactive
CCC(=O)Nc1ccccc1C(=O)N1CCCC1 |  | inactive
Cc1ccc(S(=O)(=O)Nc2cc3c(cc2NCc2ccccc2)n(C)c(=O)n3C)cc1 |  | active: 14.1 µM
CCOc1ccc(CCNC(=O)Cn2nnc(-c3ccccc3Cl)n2)cc1OCC |  | inactive
Cc1ccc(/C=C\c2nccc3c2[nH]c2ccccc23)cc1 |  | inconclusive: 17.8 µM [activator, single point]
O=C(NCCN1CCN(c2cccc(Cl)c2)CC1)Nc1ccccc1C(F)(F)F |  | inactive
CCC(NC(=O)c1ccccc1NC(=O)c1ccc(C)cc1)C(=O)O (centres undefined) |  | inactive
O=C(CSc1ccc(-c2cccs2)nn1)N1CCCCC1 |  | inconclusive: 15.8 µM [activator, single point]
CC(=O)N/N=C/c1cc(C)n(-c2ccc(Br)cc2)c1C |  | inactive
CN1C(=O)c2cccc3c(S(=O)(=O)NCc4ccco4)ccc1c23 |  | inconclusive: 20 µM [activator, single point]
